According to the supplement of paper PMC8728848:
The list shows a part of the results.

Experiments:
Test in all cases: glycan array binding signal (z-score within array); higher = stronger binding
Conditions in all cases: glycan notation: IUPAC condensed, linker removed
[1] = biological target: Fuc(a1-2)[Gal(a1-3)]Gal(b1-4)GlcNAc(b1-2)Man(a1-3)[Fuc(a1-2)[Gal(a1-3)]Gal(b1-4)GlcNAc(b1-2)Man(a1-6)]Man(b1-4)GlcNAc(b1-4)GlcNAc
Method in brief: (§1)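 Arrays were curated from the Consortium for Functional Glycomics database, 3228 in total, and kept only where the protein sequence was available. Binding is expressed as a within-array Z-score. This score was averaged across arrays of the same protein sequence at different concentrations or buffers and across linkers, and negative values can be read as non-binding.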

[2] = biological target: Fuc(a1-2)[Gal(a1-3)]Gal(b1-4)GlcNAc(b1-2)Man(a1-3)[Fuc(a1-2)[Gal(a1-3)]Gal(b1-4)GlcNAc(b1-2)Man(a1-6)]Man(b1-4)GlcNAc(b1-4)[Fuc(a1-6)]GlcNAc
Method in brief: as §1

[3] = biological target: Fuc(a1-2)[Gal(a1-3)]Gal(b1-4)GlcNAc(b1-3)GalNAc
Method in brief: as §1

[4] = biological target: Fuc(a1-2)[Gal(a1-3)]Gal(b1-4)GlcNAc(b1-3)[Fuc(a1-2)[Gal(a1-3)]Gal(b1-4)GlcNAc(b1-6)]GalNAc
Method in brief: as §1

[5] = biological target: Fuc(a1-2)[Gal(a1-3)]Gal(b1-4)GlcNAc(b1-6)GalNAc
Method in brief: as §1

[6] = biological target: Fuc(a1-2)[Gal(a1-3)]Gal(b1-4)[Fuc(a1-3)]Glc
Method in brief: as §1

[7] = biological target: Fuc(a1-2)[Gal(a1-3)]Gal(b1-4)[Fuc(a1-3)]GlcNAc
Method in brief: as §1

[8] = biological target: Fuc(a1-2)[Gal(a1-3)]Gal(b1-4)[Fuc(a1-3)]GlcNAc(b1-3)GalNAc
Method in brief: as §1

[9] = biological target: Fuc(a1-2)[Gal(a1-4)]Gal(b1-4)GlcNAc
Method in brief: as §1

[10] = biological target: Fuc(a1-2)[GalNAc(a1-3)]Gal
Method in brief: as §1

[11] = biological target: Fuc(a1-2)[GalNAc(a1-3)]Gal(b1-3)GalNAc(a1-3)[Fuc(a1-2)]Gal(b1-4)GlcNAc
Method in brief: as §1

[12] = biological target: Fuc(a1-2)[GalNAc(a1-3)]Gal(b1-3)GalNAc(b1-3)Gal(a1-4)Gal(b1-4)Glc
Method in brief: as §1

[13] = biological target: Fuc(a1-2)[GalNAc(a1-3)]Gal(b1-3)GlcNAc
Method in brief: as §1

[14] = biological target: Fuc(a1-2)[GalNAc(a1-3)]Gal(b1-3)GlcNAc(b1-2)Man(a1-3)[Fuc(a1-2)[GalNAc(a1-3)]Gal(b1-3)GlcNAc(b1-2)Man(a1-6)]Man(b1-4)GlcNAc(b1-4)GlcNAc
Method in brief: as §1

[15] = biological target: Fuc(a1-2)[GalNAc(a1-3)]Gal(b1-3)GlcNAc(b1-2)Man(a1-3)[Fuc(a1-2)[GalNAc(a1-3)]Gal(b1-3)GlcNAc(b1-2)Man(a1-6)]Man(b1-4)GlcNAc(b1-4)[Fuc(a1-6)]GlcNAc
Method in brief: as §1

[16] = biological target: Fuc(a1-2)[GalNAc(a1-3)]Gal(b1-3)GlcNAc(b1-3)GalNAc
Method in brief: as §1

[17] = biological target: Fuc(a1-2)[GalNAc(a1-3)]Gal(b1-3)GlcNAc(b1-6)GalNAc
Method in brief: as §1

[18] = biological target: Fuc(a1-2)[GalNAc(a1-3)]Gal(b1-4)Glc
Method in brief: as §1

[19] = biological target: Fuc(a1-2)[GalNAc(a1-3)]Gal(b1-4)GlcNAc
Method in brief: as §1

[20] = biological target: Fuc(a1-2)[GalNAc(a1-3)]Gal(b1-4)GlcNAc(b1-2)Man
Method in brief: as §1

[21] = biological target: Fuc(a1-2)[GalNAc(a1-3)]Gal(b1-4)GlcNAc(b1-2)Man(a1-3)[Fuc(a1-2)[GalNAc(a1-3)]Gal(b1-4)GlcNAc(b1-2)Man(a1-6)]Man(b1-4)GlcNAc(b1-4)GlcNAc
Method in brief: as §1

[22] = biological target: Fuc(a1-2)[GalNAc(a1-3)]Gal(b1-4)GlcNAc(b1-2)Man(a1-3)[Fuc(a1-2)[GalNAc(a1-3)]Gal(b1-4)GlcNAc(b1-2)Man(a1-6)]Man(b1-4)GlcNAc(b1-4)[Fuc(a1-6)]GlcNAc
Method in brief: as §1

[23] = biological target: Fuc(a1-2)[GalNAc(a1-3)]Gal(b1-4)GlcNAc(b1-3)Gal(b1-4)GlcNAc
Method in brief: as §1

[24] = biological target: Fuc(a1-2)[GalNAc(a1-3)]Gal(b1-4)GlcNAc(b1-3)Gal(b1-4)GlcNAc(b1-3)Gal(b1-4)GlcNAc
Method in brief: as §1

[25] = biological target: Fuc(a1-2)[GalNAc(a1-3)]Gal(b1-4)GlcNAc(b1-3)GalNAc
Method in brief: as §1

[26] = biological target: Fuc(a1-2)[GalNAc(a1-3)]Gal(b1-4)GlcNAc(b1-3)[Fuc(a1-2)[GalNAc(a1-3)]Gal(b1-4)GlcNAc(b1-6)]GalNAc
Method in brief: as §1

[27] = biological target: Fuc(a1-2)[GalNAc(a1-3)]Gal(b1-4)GlcNAc(b1-6)GalNAc
Method in brief: as §1

[28] = biological target: Fuc(a1-2)[GalNAc(a1-3)]Gal(b1-4)[Fuc(a1-3)]GlcNAc
Method in brief: as §1

[29] = biological target: Fuc(a1-2)[GalNAc(a1-3)]Gal(b1-4)[Fuc(a1-3)]GlcNAc(b1-3)GalNAc
Method in brief: as §1

[30] = biological target: Fuc(a1-2)[GalNAc(a1-4)]Gal(b1-4)GlcNAc
Method in brief: as §1

[31] = biological target: Fuc(a1-2)[GalNAc(b1-3)]Gal
Method in brief: as §1

Fuc(a1-3)GlcNAc = biological target: Fuc(a1-3)GlcNAc
Method in brief: as §1

[32] = biological target: Fuc(a1-3)[Gal(b1-4)]Glc6S
Method in brief: as §1

[33] = biological target: Fuc(a1-3)[Gal(b1-4)]GlcNAc
Method in brief: as §1

[34] = biological target: Fuc(a1-3)[Gal(b1-4)]GlcNAc(b1-2)Man
Method in brief: as §1

[35] = biological target: Fuc(a1-3)[Gal(b1-4)]GlcNAc(b1-2)Man(a1-3)[Fuc(a1-3)[Gal(b1-4)]GlcNAc(b1-2)Man(a1-6)]Man(b1-4)GlcNAc(b1-4)GlcNAc
Method in brief: as §1

[36] = biological target: Fuc(a1-3)[Gal(b1-4)]GlcNAc(b1-2)Man(a1-3)[Fuc(a1-3)[Gal(b1-4)]GlcNAc(b1-2)Man(a1-6)]Man(b1-4)GlcNAc(b1-4)[Fuc(a1-6)]GlcNAc
Method in brief: as §1

[37] = biological target: Fuc(a1-3)[Gal(b1-4)]GlcNAc(b1-3)Gal(b1-3)[Fuc(a1-4)]GlcNAc
Method in brief: as §1

[38] = biological target: Fuc(a1-3)[Gal(b1-4)]GlcNAc(b1-3)Gal(b1-4)[Fuc(a1-3)]GlcNAc
Method in brief: as §1

[39] = biological target: Fuc(a1-3)[Gal(b1-4)]GlcNAc(b1-3)Gal(b1-4)[Fuc(a1-3)]GlcNAc(b1-3)Gal(b1-4)[Fuc(a1-3)]GlcNAc
Method in brief: as §1

[40] = biological target: Fuc(a1-3)[Gal(b1-4)]GlcNAc(b1-3)GalNAc
Method in brief: as §1

[41] = biological target: Fuc(a1-3)[Gal(b1-4)]GlcNAc(b1-6)GalNAc
Method in brief: as §1

[42] = biological target: Fuc(a1-3)[Gal(b1-4)]GlcNAc(b1-6)[Gal(b1-3)GlcNAc(b1-3)]Gal(b1-4)Glc
Method in brief: as §1

[43] = biological target: Fuc(a1-3)[Gal(b1-4)]GlcNAc6S
Method in brief: as §1

[44] = biological target: Fuc(a1-3)[Gal3S(b1-4)]Glc
Method in brief: as §1

[45] = biological target: Fuc(a1-3)[Gal3S(b1-4)]GlcNAc
Method in brief: as §1

[46] = biological target: Fuc(a1-3)[Gal3S(b1-4)]GlcNAc6S
Method in brief: as §1

[47] = biological target: Fuc(a1-3)[GalNAc(b1-4)]GlcNAc
Method in brief: as §1

[48] = biological target: Fuc(a1-3)[GalNAc(b1-4)]GlcNAc6S
Method in brief: as §1

Fuc(a1-4)GlcNAc = biological target: Fuc(a1-4)GlcNAc
Method in brief: as §1

Fuc(b1-3)GlcNAc = biological target: Fuc(b1-3)GlcNAc
Method in brief: as §1

Gal(a1-2)Gal = biological target: Gal(a1-2)Gal
Method in brief: as §1

Gal(a1-3)Gal = biological target: Gal(a1-3)Gal
Method in brief: as §1

Gal(a1-3)Gal(b1-3)GlcNAc = biological target: Gal(a1-3)Gal(b1-3)GlcNAc
Method in brief: as §1

[49] = biological target: Gal(a1-3)Gal(b1-3)GlcNAc(b1-2)Man
Method in brief: as §1

[50] = biological target: Gal(a1-3)Gal(b1-3)GlcNAc(b1-2)Man(a1-3)[Gal(a1-3)Gal(b1-3)GlcNAc(b1-2)Man(a1-6)]Man(b1-4)GlcNAc(b1-4)GlcNAc
Method in brief: as §1

[51] = biological target: Gal(a1-3)Gal(b1-3)GlcNAc(b1-3)GalNAc
Method in brief: as §1

[52] = biological target: Gal(a1-3)Gal(b1-3)GlcNAc(b1-6)GalNAc
Method in brief: as §1

[53] = biological target: Gal(a1-3)Gal(b1-3)[Fuc(a1-4)]GlcNAc(b1-2)Man(a1-3)[Gal(a1-3)Gal(b1-3)[Fuc(a1-4)]GlcNAc(b1-2)Man(a1-6)]Man(b1-4)GlcNAc(b1-4)GlcNAc
Method in brief: as §1

Gal(a1-3)Gal(b1-4)Glc = biological target: Gal(a1-3)Gal(b1-4)Glc
Method in brief: as §1

B1: CrataBL (Crataeva tapia), C0HJA4 (protein)
chain: AILTGVPYYILPSTSRAGFSPDNLRKNTSQLSCPLDLITQLRFPRRIGVPVIFTPQNSSLKVVPLSHNLNIHTCSDLWFCPESKIWTVKSSLTHGGSVVTTGGTFRSLGSWFRIERHGDSYKLVHCPRGSTPCRDVGIETVGGGGRRYLAPRDRPLAVRFTRASG
[1]
  glycan array binding signal (z-score): -0.064
[2]
  glycan array binding signal (z-score): -0.461
[3]
  glycan array binding signal (z-score): -0.341
[4]
  glycan array binding signal (z-score): -0.094
[5]
  glycan array binding signal (z-score): -0.324
[6]
  glycan array binding signal (z-score): -0.501
[7]
  glycan array binding signal (z-score): -0.409
[8]
  glycan array binding signal (z-score): -0.054
[9]
  glycan array binding signal (z-score): -0.024
[10]
  glycan array binding signal (z-score): -0.415
[11]
  glycan array binding signal (z-score): -0.174
[12]
  glycan array binding signal (z-score): -0.082
[13]
  glycan array binding signal (z-score): -0.225
[14]
  glycan array binding signal (z-score): -0.542
[15]
  glycan array binding signal (z-score): -0.508
[16]
  glycan array binding signal (z-score): -0.331
[17]
  glycan array binding signal (z-score): -0.478
[18]
  glycan array binding signal (z-score): -0.442
[19]
  glycan array binding signal (z-score): -0.5
[20]
  glycan array binding signal (z-score): -0.507
[21]
  glycan array binding signal (z-score): 0.007
[22]
  glycan array binding signal (z-score): -0.312
[23]
  glycan array binding signal (z-score): -0.338
[24]
  glycan array binding signal (z-score): 0.355
[25]
  glycan array binding signal (z-score): -0.392
[26]
  glycan array binding signal (z-score): -0.362
[27]
  glycan array binding signal (z-score): -0.533
[28]
  glycan array binding signal (z-score): -0.257
[29]
  glycan array binding signal (z-score): 0.619
[30]
  glycan array binding signal (z-score): -0.383
[31]
  glycan array binding signal (z-score): -0.158
Fuc(a1-3)GlcNAc
  glycan array binding signal (z-score): -0.438
[32]
  glycan array binding signal (z-score): 0.383
[33]
  glycan array binding signal (z-score): -0.348
[34]
  glycan array binding signal (z-score): -0.427
[35]
  glycan array binding signal (z-score): -0.41
[36]
  glycan array binding signal (z-score): 0.148
[37]
  glycan array binding signal (z-score): -0.469
[38]
  glycan array binding signal (z-score): -0.282
[39]
  glycan array binding signal (z-score): -0.139
[40]
  glycan array binding signal (z-score): -0.415
[41]
  glycan array binding signal (z-score): -0.407
[42]
  glycan array binding signal (z-score): -0.443
[43]
  glycan array binding signal (z-score): 1.12
[44]
  glycan array binding signal (z-score): -0.449
[45]
  glycan array binding signal (z-score): -0.258
[46]
  glycan array binding signal (z-score): 0.946
[47]
  glycan array binding signal (z-score): -0.227
[48]
  glycan array binding signal (z-score): 0.386
Fuc(a1-4)GlcNAc
  glycan array binding signal (z-score): 1.89
Fuc(b1-3)GlcNAc
  glycan array binding signal (z-score): -0.367
Gal(a1-2)Gal
  glycan array binding signal (z-score): -0.402
Gal(a1-3)Gal
  glycan array binding signal (z-score): -0.036
Gal(a1-3)Gal(b1-3)GlcNAc
  glycan array binding signal (z-score): -0.369
[49]
  glycan array binding signal (z-score): 0.006
[50]
  glycan array binding signal (z-score): -0.065
[51]
  glycan array binding signal (z-score): -0.383
[52]
  glycan array binding signal (z-score): -0.144
[53]
  glycan array binding signal (z-score): 0.029
Gal(a1-3)Gal(b1-4)Glc
  glycan array binding signal (z-score): -0.243
